The RNAGym collection of RNA variant scans (doi:10.7554/elife.90254)
Read counts are not given, so values of variants with three or more changes are uncertain.

B1: LINE1-mini (parent)
chain: GGCAGAGCUCAACACAGCGUGGCAAAGUGGCUGUGGCUAGACUGCC

Variants of: B1
Experiment: self-cleavage, relative activity (ratio to wild type); higher = more cleavage; in vitro, sequencing; the parent is a self-cleaving ribozyme
For G7U C8G C15A G29U, the self-cleavage was 0.16.
With G7U C15A C37A the self-cleavage was 0.25.
Variant G7U C15G G17A C42A has a self-cleavage of 0.02.
For G7U C8U G36A, the self-cleavage was 1.33.
For G7U C23U U34C, the self-cleavage was 0.1.
G7U C8U C18A gave a self-cleavage of 0.3.
Variant G7U C13A G17A C45U has a self-cleavage of 0.08.
In the case of G7U G17A G30U G33A, the self-cleavage is reported as 0.05.
In the case of G7U C23A A39U C42U, the self-cleavage is reported as 0.04.
G7U C8G C15G U43G gave a self-cleavage of 0.
In the case of G7U C15G G19U, the self-cleavage is reported as 0.03.
G7U C18G U28G G35U A41G C42U C45U showed a self-cleavage of 0.03.
With G7U G17A U28C the self-cleavage was 0.02.
G7U C23U G36U A39C gave a self-cleavage of 0.04.
With G7U C13A A16C A41U G44U the self-cleavage was 0.21.
Variant G7U C23A G35U has a self-cleavage of 0.04.
With G7U C10U A14U the self-cleavage was 0.1.
Work on G7U C10A A12C yielded a self-cleavage of 0.
G7U C13U A14U C37U showed a self-cleavage of 0.03.
For G7U C18G G19C G29U, the self-cleavage was 0.21.
Variant G7U C8G U9A G17C A25G has a self-cleavage of 0.05.
In the case of G7U C13G G21A C37G C42U, the self-cleavage is reported as 0.08.
For G7U C31G G35U A39U, the self-cleavage was 0.02.
Variant G7U C10A A14C U38A has a self-cleavage of 0.02.
Variant G7U C18A C23A A24C G29A G36U C37U has a self-cleavage of 0.01.
G7U G17A A26C gave a self-cleavage of 0.02.
In the case of G7U C18G A26U C31A C42G, the self-cleavage is reported as 0.1.
G7U C10U A12U C15A C18U gave a self-cleavage of 0.
Variant G7U C15U U32G C37G has a self-cleavage of 0.19.
With G7U C10A A11C A25G the self-cleavage was 0.
Work on G7U A25U A39U yielded a self-cleavage of 0.2.
G7U C13A G27A C37G G40U C42G C46G gave a self-cleavage of 0.1.
G7U C10U A14U C15U G30U G40A gave a self-cleavage of 0.39.
In the case of G7U C13A U20C A41C C45U, the self-cleavage is reported as 0.25.
Work on G7U C13A C31U C37A yielded a self-cleavage of 0.02.
Variant G7U C8A A11C A26G has a self-cleavage of 0.02.
G7U A26C G36C C37U showed a self-cleavage of 0.01.
G7U G17A G22A C45U showed a self-cleavage of 0.01.
In the case of G7U C31U G35U, the self-cleavage is reported as 0.01.
Variant G7U C13U U34A has a self-cleavage of 0.13.
Work on G7U C8A G19C U34C yielded a self-cleavage of 0.09.
In the case of G7U C18A C46U, the self-cleavage is reported as 0.04.
With G7U C31G U38G C46A the self-cleavage was 0.01.
For G7U C10A A14G G22C, the self-cleavage was 0.04.
For G7U C8A G40U, the self-cleavage was 0.06.
Variant G7U C8A G40C has a self-cleavage of 0.1.
Work on G7U C18G G30U G40U yielded a self-cleavage of 0.05.
G7U C15A C31G gave a self-cleavage of 0.12.
Variant G7U C8U G21C U38C has a self-cleavage of 0.12.
For G7U C10U A24C U28G C31G U32A, the self-cleavage was 0.01.
Work on G7U C23A G33C yielded a self-cleavage of 0.03.
Variant G7U C18G G33A has a self-cleavage of 0.02.
With G7U A26U G29A U32C U38G the self-cleavage was 0.
Work on G7U A25U C31G yielded a self-cleavage of 0.02.
Work on G7U C10U G21U yielded a self-cleavage of 0.04.
G7U C10A C31A C37U gave a self-cleavage of 0.03.
G7U C13A C15A showed a self-cleavage of 0.69.
Work on G7U C37A C45A yielded a self-cleavage of 0.01.
For G7U C15G G21C U38C, the self-cleavage was 0.05.
G7U C8G A12G G30C showed a self-cleavage of 0.02.
In the case of G7U C13G G30U, the self-cleavage is reported as 0.18.
Variant G7U A24U U28C has a self-cleavage of 0.02.
For G7U C15U A16U A25G G33A G44A, the self-cleavage was 0.06.
With G7U C13U G22A A25C A39U the self-cleavage was 0.51.
For G7U C18A G19A A24C A39U, the self-cleavage was 0.02.
For G7U A25C G29A G35C, the self-cleavage was 0.08.
G7U C18A G36A A39U showed a self-cleavage of 0.42.
With G7U C37U G44U the self-cleavage was 0.31.
With G7U C13G A16U the self-cleavage was 0.04.
G7U C23A U32G U34A U38A gave a self-cleavage of 0.15.
With G7U C8A A11C C15G C37U the self-cleavage was 0.
Work on G7U A26G U34C C45A yielded a self-cleavage of 0.07.
With G7U C15U C23G G30A A39G the self-cleavage was 0.
In the case of G7U C31U U32C, the self-cleavage is reported as 0.12.
Work on G7U C10A A11U G17U U20C U34G G44C yielded a self-cleavage of 0.
Variant G7U C8U C18G C45A has a self-cleavage of 0.29.
For G7U C31G G35C A39U G40A, the self-cleavage was 0.03.
Work on G7U C13A A14G C31U U34C yielded a self-cleavage of 0.13.
G7U C10U G33U showed a self-cleavage of 0.08.
G7U C10G U38G gave a self-cleavage of 0.01.
With G7U A16U U38A G40C the self-cleavage was 0.
With G7U A16U G22U A26G C42G C45G the self-cleavage was 0.1.
In the case of G7U C15U U43A, the self-cleavage is reported as 0.02.
G7U C8G C13U U38C showed a self-cleavage of 0.19.
Work on G7U C8U G29U C46U yielded a self-cleavage of 0.28.
In the case of G7U C31U C37A G40U, the self-cleavage is reported as 0.02.
Variant G7U A24U C31A G35C has a self-cleavage of 0.05.
Variant G7U C10A A39U has a self-cleavage of 0.04.
In the case of G7U A16G C18U A24G G29C C31A A39C, the self-cleavage is reported as 0.27.
G7U C8A A14U G33U showed a self-cleavage of 0.35.
G7U C18A U20G G30U G40C G44U gave a self-cleavage of 0.03.
G7U A24U A25C C42U gave a self-cleavage of 0.37.
Work on G7U C10U G29U A41G yielded a self-cleavage of 0.02.
With G7U C18U G30U G33A C45U the self-cleavage was 0.12.
Variant G7U A16U U28C G30A has a self-cleavage of 0.04.
For G7U C8G A25U G44A, the self-cleavage was 0.04.
Variant G7U C8A C13U G19U G36U has a self-cleavage of 0.07.
With G7U C31A U38G the self-cleavage was 0.01.
G7U C23A G27U showed a self-cleavage of 0.05.
Work on G7U A24G C42G yielded a self-cleavage of 0.03.
In the case of G7U C8U U28C C45G, the self-cleavage is reported as 0.09.
In the case of G7U C8A G19A G22U U38G, the self-cleavage is reported as 0.01.
G7U C8U U28G G29C showed a self-cleavage of 0.04.
G7U C23G C31G C45A gave a self-cleavage of 0.08.
With G7U A26C G40A the self-cleavage was 0.11.
With G7U A39U G44A the self-cleavage was 0.06.
With G7U A26U U32G G36U the self-cleavage was 0.06.
Variant G7U C10G G27A has a self-cleavage of 0.02.
G7U C15A U20A A26C C37A gave a self-cleavage of 0.02.
Work on G7U C13A C18G G21A G30U yielded a self-cleavage of 0.05.
G7U A24G A25G G44A showed a self-cleavage of 0.1.
Work on G7U C13G C31U G36U yielded a self-cleavage of 0.35.
Work on G7U C8A G21A yielded a self-cleavage of 0.45.
Variant G7U C10G C18U U20G has a self-cleavage of 0.02.
Variant G7U C10G C37A has a self-cleavage of 0.
G7U C31U U38C G40C gave a self-cleavage of 0.1.
G7U C13U U28C U43C gave a self-cleavage of 0.12.
With G7U C15U G35U G36A the self-cleavage was 0.03.
For G7U A25U G33A C46U, the self-cleavage was 0.09.
Work on G7U C31G G40A yielded a self-cleavage of 0.03.
With G7U C8G A16C U34A the self-cleavage was 0.03.
For G7U C31G G33U, the self-cleavage was 0.07.
In the case of G7U C10A G29U, the self-cleavage is reported as 0.05.
With G7U C8A G19C G36C A39C the self-cleavage was 0.08.
For G7U A39G C42U, the self-cleavage was 0.02.
G7U C15U G21A C23U A25C gave a self-cleavage of 0.15.
G7U C13U A16U U38C G40C gave a self-cleavage of 0.05.
For G7U C10A A24G A39G, the self-cleavage was 0.01.
Work on G7U A39G C45G yielded a self-cleavage of 0.3.
G7U C10U C37A gave a self-cleavage of 0.05.
For G7U C23U A39C, the self-cleavage was 0.05.
G7U C23U U34C A39G showed a self-cleavage of 0.03.
With G7U C8U A25C U38G G40C the self-cleavage was 0.07.
In the case of G7U G17A G27A, the self-cleavage is reported as 0.05.
Variant G7U C15A G29U has a self-cleavage of 0.1.
With G7U C8U A25C the self-cleavage was 0.4.
G7U C10U G17A G29C C31U G33C C37G showed a self-cleavage of 0.
For G7U C8A C18A, the self-cleavage was 0.34.
For G7U A16U C18U, the self-cleavage was 0.02.
In the case of G7U C13U G44A, the self-cleavage is reported as 0.17.
For G7U A25G G27C C37A, the self-cleavage was 0.01.
Variant G7U G17A G36U has a self-cleavage of 0.06.
G7U A41G C42G gave a self-cleavage of 0.06.
In the case of G7U C13A U28C, the self-cleavage is reported as 0.08.
For G7U C10U U28C, the self-cleavage was 0.01.
Variant G7U C10U G30C U32A has a self-cleavage of 0.01.
G7U A25G G33C U43A gave a self-cleavage of 0.02.
With G7U C23A C46A the self-cleavage was 0.02.
For G7U C31U G40A, the self-cleavage was 0.34.
G7U C8A G29A C31U U32A gave a self-cleavage of 0.16.
For G7U A26U G33U G36A, the self-cleavage was 0.05.
With G7U C13G C23A C45A the self-cleavage was 0.23.
G7U C13G G17C U20A C45U gave a self-cleavage of 0.04.
In the case of G7U C8G C10A A24U G40U, the self-cleavage is reported as 0.01.
Work on G7U C31U G35A U38C A39G yielded a self-cleavage of 0.12.
For G7U C15U C18A C31A G44C, the self-cleavage was 0.01.
G7U C23U G33C C42A U43A gave a self-cleavage of 0.05.
G7U A16U G29U C31A showed a self-cleavage of 0.05.
With G7U C13G G19U A41G the self-cleavage was 0.15.
Work on G7U A26C U28A yielded a self-cleavage of 0.06.
With G7U C23G U32A G33U G36A the self-cleavage was 0.05.
Work on G7U C23U G30A G36U yielded a self-cleavage of 0.01.
Work on G7U C8A A14G A16G G27A G40A yielded a self-cleavage of 0.06.
For G7U C8A A26C G30U, the self-cleavage was 0.1.
In the case of G7U C10U A12U U43G G44U C45G, the self-cleavage is reported as 0.01.
G7U A25G G33U showed a self-cleavage of 0.11.
For G7U C13U G29U, the self-cleavage was 0.05.
